Measurements from the BET-seq Pho4 binding data (Le et al. 2018).
Some of the results follow. Values were computed here from the reads of four pooled replicates and scatter widely.

What follows are sequences tested against T1, Pho4 (S. cerevisiae) (UniProt P07270) (assay: relative binding free energy (BET-seq); higher = weaker binding). Conditions: reference: library average.
T1 sequence: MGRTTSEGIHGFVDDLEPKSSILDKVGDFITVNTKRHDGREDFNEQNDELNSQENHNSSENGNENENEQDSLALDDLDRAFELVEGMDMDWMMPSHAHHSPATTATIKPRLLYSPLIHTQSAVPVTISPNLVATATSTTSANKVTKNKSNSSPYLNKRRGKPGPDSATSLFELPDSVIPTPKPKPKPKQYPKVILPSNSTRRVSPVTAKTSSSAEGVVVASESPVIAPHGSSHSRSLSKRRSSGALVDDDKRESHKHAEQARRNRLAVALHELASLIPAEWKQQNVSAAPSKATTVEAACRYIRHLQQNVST
With AGTTCCACGTGTATGT the “relative binding free energy” value was -0.07 kcal/mol. With CGGGCCACGTGTATGT the “relative binding free energy” value was -0.12 kcal/mol. For GGGTTCACGTGGCTTG, the “relative binding free energy” value was 0.26 kcal/mol. In the case of TGAGGCACGTGTGCTA, the “relative binding free energy” value is reported as -0.21 kcal/mol. AGGTGCACGTGTTGTA was tested, and the “relative binding free energy” value was -0.02 kcal/mol. In the case of GTTCTCACGTGTTAAG, the “relative binding free energy” value is reported as 0.28 kcal/mol. TAAGTCACGTGGGATT was tested, and the “relative binding free energy” value was 0.03 kcal/mol. For TGATCCACGTGGTTTT, the “relative binding free energy” value was 0.02 kcal/mol. With TGTAGCACGTGTGGCG the “relative binding free energy” value was -0.03 kcal/mol. With CGTTTCACGTGGGGTG the “relative binding free energy” value was 0.16 kcal/mol. With TGAGACACGTGTAAGT the “relative binding free energy” value was 0.15 kcal/mol. For TTTTACACGTGAAGCG, the “relative binding free energy” value was 0.3 kcal/mol. For TGGTTCACGTGAGCAG, the “relative binding free energy” value was 0.37 kcal/mol. With TTAGGCACGTGTAGAG the “relative binding free energy” value was 0.07 kcal/mol. For ATCTTCACGTGTGATT, the “relative binding free energy” value was 0.36 kcal/mol. For TGAATCACGTGATCGG, the “relative binding free energy” value was 0.17 kcal/mol. GGAGTCACGTGCGGTA was tested, and the “relative binding free energy” value was 0.09 kcal/mol. For GGAATCACGTGGTGGT, the “relative binding free energy” value was 0.19 kcal/mol. In the case of GAATTCACGTGAATGT, the “relative binding free energy” value is reported as 0.31 kcal/mol. GCTTACACGTGGGATT was tested, and the “relative binding free energy” value was 0.11 kcal/mol. CTTGTCACGTGTGGCA was tested, and the “relative binding free energy” value was 0.13 kcal/mol. AGTTCCACGTGGAGGG was tested, and the “relative binding free energy” value was -0.06 kcal/mol. For TTAGTCACGTGCACTG, the “relative binding free energy” value was 0.13 kcal/mol. In the case of TGTTACACGTGTCAGC, the “relative binding free energy” value is reported as 0.35 kcal/mol. For GTAAACACGTGGAGTG, the “relative binding free energy” value was -0.08 kcal/mol. In the case of GGGAGCACGTGATTGA, the “relative binding free energy” value is reported as 0.12 kcal/mol. For TTTTTCACGTGACCGG, the “relative binding free energy” value was 0.43 kcal/mol. TGCGGCACGTGGTTAA was tested, and the “relative binding free energy” value was -0.12 kcal/mol. With CATAACACGTGTTTGT the “relative binding free energy” value was -0.14 kcal/mol. ACGTTCACGTGGTGGC was tested, and the “relative binding free energy” value was 0.17 kcal/mol. TTGCACACGTGCGGTG was tested, and the “relative binding free energy” value was -0.01 kcal/mol. With TCGTGCACGTGGAGTC the “relative binding free energy” value was 0.09 kcal/mol. For TTTGACACGTGTTTGT, the “relative binding free energy” value was 0.03 kcal/mol. With TGTGACACGTGTCAGT the “relative binding free energy” value was -0.03 kcal/mol. GCTTTCACGTGGTTGC was tested, and the “relative binding free energy” value was 0.49 kcal/mol. In the case of ATCGGCACGTGCTGTT, the “relative binding free energy” value is reported as -0.06 kcal/mol. For CTTTTCACGTGGTTAT, the “relative binding free energy” value was 0.21 kcal/mol. In the case of AAGTTCACGTGGATGG, the “relative binding free energy” value is reported as 0.13 kcal/mol. For GTGGTCACGTGTTCAG, the “relative binding free energy” value was 0.09 kcal/mol. For TTAGTCACGTGGGCAT, the “relative binding free energy” value was -0.14 kcal/mol. In the case of ATGTACACGTGTTTTT, the “relative binding free energy” value is reported as 0.14 kcal/mol. In the case of GGGTTCACGTGGCGGT, the “relative binding free energy” value is reported as 0.32 kcal/mol. With TCATGCACGTGCAGGT the “relative binding free energy” value was -0.07 kcal/mol. GTCGACACGTGTCGGG was tested, and the “relative binding free energy” value was 0.13 kcal/mol. For ATTGGCACGTGGCAGG, the “relative binding free energy” value was -0.14 kcal/mol. In the case of GAGGTCACGTGTAGTA, the “relative binding free energy” value is reported as 0.26 kcal/mol. For AAAGTCACGTGTGGGA, the “relative binding free energy” value was 0.13 kcal/mol. In the case of GGACTCACGTGTTGTT, the “relative binding free energy” value is reported as 0.21 kcal/mol. In the case of GATTCCACGTGTGATG, the “relative binding free energy” value is reported as 0.5 kcal/mol. For AAGAGCACGTGGATGT, the “relative binding free energy” value was -0.04 kcal/mol. For GAGTTCACGTGACAGG, the “relative binding free energy” value was 0.41 kcal/mol. With GGTGTCACGTGCTGTC the “relative binding free energy” value was 0.11 kcal/mol. For TAAAACACGTGGGTTA, the “relative binding free energy” value was -0.1 kcal/mol. In the case of CAAAGCACGTGGTTGT, the “relative binding free energy” value is reported as -0.04 kcal/mol. With TAGTTCACGTGTACTT the “relative binding free energy” value was 0.16 kcal/mol. With TGGTGCACGTGCTAAG the “relative binding free energy” value was -0.22 kcal/mol. In the case of CTTGGCACGTGGGTTC, the “relative binding free energy” value is reported as -0.32 kcal/mol. For GTGTGCACGTGTCCAG, the “relative binding free energy” value was -0.01 kcal/mol. In the case of ATTAGCACGTGGTACG, the “relative binding free energy” value is reported as -0.05 kcal/mol. For AATGCCACGTGTTAGT, the “relative binding free energy” value was -0.07 kcal/mol. With ACGTGCACGTGAATTG the “relative binding free energy” value was 0.08 kcal/mol. For AACGTCACGTGTGGAG, the “relative binding free energy” value was 0.15 kcal/mol. CGGGTCACGTGTGTTC was tested, and the “relative binding free energy” value was 0.18 kcal/mol. With AGATTCACGTGATGTG the “relative binding free energy” value was 0.22 kcal/mol. For TGGTCCACGTGGGTGC, the “relative binding free energy” value was -0.2 kcal/mol. With TGGGTCACGTGTTGAG the “relative binding free energy” value was 0.14 kcal/mol. In the case of AAAAGCACGTGGCGGG, the “relative binding free energy” value is reported as -0.22 kcal/mol. In the case of GTAATCACGTGTTGAT, the “relative binding free energy” value is reported as 0.21 kcal/mol. TTTACCACGTGATAGT was tested, and the “relative binding free energy” value was 0.1 kcal/mol. ATTGTCACGTGCGGGC was tested, and the “relative binding free energy” value was 0.09 kcal/mol. With TTATACACGTGGGGTA the “relative binding free energy” value was -0.18 kcal/mol. For TGGCTCACGTGGTGTG, the “relative binding free energy” value was 0.12 kcal/mol. For GGGTGCACGTGGCTGG, the “relative binding free energy” value was -0.05 kcal/mol. TTTGACACGTGTAATA was tested, and the “relative binding free energy” value was 0.09 kcal/mol. GATGTCACGTGAGGTG was tested, and the “relative binding free energy” value was 0.31 kcal/mol. In the case of TGGGTCACGTGGATTT, the “relative binding free energy” value is reported as 0.17 kcal/mol. GGGTACACGTGACGGG was tested, and the “relative binding free energy” value was 0.33 kcal/mol. For ATTATCACGTGCATTG, the “relative binding free energy” value was 0.11 kcal/mol. AGGTTCACGTGCGTTT was tested, and the “relative binding free energy” value was 0.3 kcal/mol. With TCACTCACGTGTGTGG the “relative binding free energy” value was 0.21 kcal/mol. With TATATCACGTGCGCGG the “relative binding free energy” value was 0.1 kcal/mol. For CAGGTCACGTGAGTAA, the “relative binding free energy” value was 0.36 kcal/mol. In the case of GGTTGCACGTGCGGAC, the “relative binding free energy” value is reported as 0.06 kcal/mol. GCGGGCACGTGTGCTT was tested, and the “relative binding free energy” value was -0.03 kcal/mol. For GGCAGCACGTGGTGTA, the “relative binding free energy” value was -0.09 kcal/mol. With ATGGGCACGTGCGATC the “relative binding free energy” value was 0.05 kcal/mol. With GTGTTCACGTGATTCA the “relative binding free energy” value was 0.33 kcal/mol. CTTAACACGTGTGGGA was tested, and the “relative binding free energy” value was -0.1 kcal/mol. GTACTCACGTGAGGTT was tested, and the “relative binding free energy” value was 0.46 kcal/mol. GATTTCACGTGGCGTC was tested, and the “relative binding free energy” value was 0.35 kcal/mol. In the case of ATGTGCACGTGGTCTA, the “relative binding free energy” value is reported as -0.03 kcal/mol. With GAGAGCACGTGACGGT the “relative binding free energy” value was 0.18 kcal/mol. In the case of GGTGGCACGTGCCCGT, the “relative binding free energy” value is reported as -0.13 kcal/mol. TTTTACACGTGAGTCG was tested, and the “relative binding free energy” value was 0.29 kcal/mol. With CGTTGCACGTGGACGT the “relative binding free energy” value was -0.03 kcal/mol. For TTAAACACGTGTAATG, the “relative binding free energy” value was -0.03 kcal/mol. For AATGTCACGTGATGGT, the “relative binding free energy” value was 0.21 kcal/mol. With AGGTTCACGTGTAGAC the “relative binding free energy” value was 0.31 kcal/mol. With GGGATCACGTGGTATA the “relative binding free energy” value was 0.07 kcal/mol. With TGGGACACGTGGGGGA the “relative binding free energy” value was -0.08 kcal/mol. In the case of TAGAGCACGTGTTGTC, the “relative binding free energy” value is reported as -0.13 kcal/mol. TGTGACACGTGCTGAG was tested, and the “relative binding free energy” value was -0.11 kcal/mol. With AGTGACACGTGGGGCG the “relative binding free energy” value was -0.08 kcal/mol. With CTAGGCACGTGTGGTT the “relative binding free energy” value was -0.11 kcal/mol. In the case of GGGTTCACGTGCTTGT, the “relative binding free energy” value is reported as 0.2 kcal/mol. GGGCTCACGTGGAGGG was tested, and the “relative binding free energy” value was 0.17 kcal/mol. For TGATGCACGTGTTGTC, the “relative binding free energy” value was -0.06 kcal/mol. In the case of ACGGGCACGTGGTGTC, the “relative binding free energy” value is reported as -0.23 kcal/mol. With CTTGCCACGTGGTTGT the “relative binding free energy” value was -0.22 kcal/mol. TAGTTCACGTGTTACT was tested, and the “relative binding free energy” value was 0.28 kcal/mol. With CTTTGCACGTGGATTT the “relative binding free energy” value was 0.14 kcal/mol. In the case of TGGAACACGTGTACGT, the “relative binding free energy” value is reported as 0.06 kcal/mol. TGCAACACGTGGGTTG was tested, and the “relative binding free energy” value was -0.02 kcal/mol. In the case of TAGGGCACGTGGCTGG, the “relative binding free energy” value is reported as -0.09 kcal/mol. GTTCACACGTGGGTAT was tested, and the “relative binding free energy” value was 0.04 kcal/mol.
